From PMC7819943, “Rice protein-binding microarrays: a tool to detect cis-acting elements near promoter regions in rice”
This is one part of the list.

target: T1, OsWOX13 (Oryza sativa, UniProt Q5QMM3 1-267); assay: protein-binding microarray (RPBM); PBS, 2% BSA, 51.3 ng/ul salmon testes DNA, 50 uM zinc acetate, 200 nM TF, 25 C, 1 h; high values mean tight binding; conditions: protein: recombinant; tags: N-terminal polyhistidine and DsRed monomer fusion (pET32a); label: CyDye5-dUTP incorporated in the synthesized complementary strand; 3' TTTTT single-stranded linker to array surface; dsDNA, one strand shown
T1 sequence: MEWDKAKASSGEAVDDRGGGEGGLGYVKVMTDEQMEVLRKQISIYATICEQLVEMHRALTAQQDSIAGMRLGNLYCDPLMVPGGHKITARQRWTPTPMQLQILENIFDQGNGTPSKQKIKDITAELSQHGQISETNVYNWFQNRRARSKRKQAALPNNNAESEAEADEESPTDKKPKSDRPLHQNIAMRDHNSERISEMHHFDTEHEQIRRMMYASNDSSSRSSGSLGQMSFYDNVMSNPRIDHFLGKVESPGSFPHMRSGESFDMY
Procedure, shortened: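 The binding signal is fluorescence intensity per array feature (arbitrary units). Readings came from an Axon 4000B scanner after a washed, 2% BSA-blocked, double-stranded custom Agilent array had been incubated for 1 h at 25 °C with 200 nM protein and 50 µM zinc acetate. The protein was a Ni–NTA-purified transcription factor fused N-terminally to polyhistidine and DsRed, expressed in E. coli BL21-CodonPlus.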

Sequence | binding signal
TTAATCGACTAATCAATTCCTCGGATGCCACCTCTCTCTGCGGAGTCACCTAGTGCAG | 6460 fluorescence intensity (a.u.)
CAACTGATTTTATCACGTTCTAAAATATGCCATCATCTTTCGGAGTCACCTAGTGCAG | 12300 fluorescence intensity (a.u.)
CCTAATGATTTCTCAAGCACAGAGATGAACCATCTTCCATCGGAGTCACCTAGTGCAG | 12500 fluorescence intensity (a.u.)
GGCGGCGGCGGAGGAGGAGGAGGGGAGGGGAGCACGAGCGCGGAGTCACCTAGTGCAG | 10700 fluorescence intensity (a.u.)
ATTTCCAATCAATCCAAGAGGCTAGAGCTAGCGGCCAAGACGGAGTCACCTAGTGCAG | 12800 fluorescence intensity (a.u.)
TTGACACATATATGGATCAATCAAGCTAACTCTCTCTAAACGGAGTCACCTAGTGCAG | 11100 fluorescence intensity (a.u.)
ATGCCGTTTGAGATTGACGAGGTTAAATGACGAGGGCGGCCGGAGTCACCTAGTGCAG | 22800 fluorescence intensity (a.u.)
AATTAATTAATGCTTCTCTTCTACACTGATGCTGCAGGTTCGGAGTCACCTAGTGCAG | 45100 fluorescence intensity (a.u.)
TAAAGTGTACTCCAATCAAGTACTACTCCTCCACATCAACCGGAGTCACCTAGTGCAG | 4570 fluorescence intensity (a.u.)
TAATTGATTAATTAAAATAGTTTATTTGTGGGCATGTAAACGGAGTCACCTAGTGCAG | 22700 fluorescence intensity (a.u.)
GATGACTGACTTTGTTCAAGCAAACGGTCACTTTTGATCCCGGAGTCACCTAGTGCAG | 15000 fluorescence intensity (a.u.)
TTTTATATTAATATAAATGTGATGAGCTTTTATTGAGAAGCGGAGTCACCTAGTGCAG | 8350 fluorescence intensity (a.u.)
GATACAATAATTACTCCGTATTACTCTCTCTCCCTGCTTACGGAGTCACCTAGTGCAG | 4910 fluorescence intensity (a.u.)
CATCAATCAATCAAGATCTCTCTTGACCATCTAGATACATCGGAGTCACCTAGTGCAG | 51400 fluorescence intensity (a.u.)
CGTACCAATTTCAATCCAAATTTCCAACTTTGAAAGAAACCGGAGTCACCTAGTGCAG | 4780 fluorescence intensity (a.u.)
GTTATTGAGGATGATTAAAACCGTTTGGTGCCCTGTCATACGGAGTCACCTAGTGCAG | 5470 fluorescence intensity (a.u.)
TATCATTAAATTTATGTGGCTTAACTTTTCTATCATTTAACGGAGTCACCTAGTGCAG | 7390 fluorescence intensity (a.u.)
TTTTAACACAGTTTAACTGAATTTGACTAAATTCACAATACGGAGTCACCTAGTGCAG | 6160 fluorescence intensity (a.u.)
TCTTTATGATTGCTGCCAACTAATGTTTTCTTTCATACTACGGAGTCACCTAGTGCAG | 17600 fluorescence intensity (a.u.)
GCATTTGGTTGTGATTTTGGGAATTGATTCCCTTGTATCCCGGAGTCACCTAGTGCAG | 3630 fluorescence intensity (a.u.)
AATTAATCATATGTTAATTTATTGTTCCGTTGCATGCCGGCGGAGTCACCTAGTGCAG | 38800 fluorescence intensity (a.u.)

Sequence | binding signal
GCCGGTGATTGGCGTGGCGTGGCGTGGCGTGGCGCGGTGTCGGAGTCACCTAGTGCAG | 52600 fluorescence intensity (a.u.)
AGGCTGATGAAAGGGGATTGCCAGCAGATTGCAATGCAGACGGAGTCACCTAGTGCAG | 16900 fluorescence intensity (a.u.)
TTTACAAGATTGGCAAGTCTGGTCAGGAGTCTCATGCGGCCGGAGTCACCTAGTGCAG | 31900 fluorescence intensity (a.u.)
ATTTACTAATGATAGATTAATTAGGCCTAATAGATTCGACCGGAGTCACCTAGTGCAG | 29200 fluorescence intensity (a.u.)
ATAACTAATGGATGAAATTTTCTATCATCTCAAAGCTGATCGGAGTCACCTAGTGCAG | 17500 fluorescence intensity (a.u.)
GAGCAAATTTAATAGTATAGCCCACTACTAACTCCAAATCCGGAGTCACCTAGTGCAG | 3860 fluorescence intensity (a.u.)
AGTAAATTAAACCTGCATATATATGAACGCTCACAAGTCACGGAGTCACCTAGTGCAG | 7360 fluorescence intensity (a.u.)
ACTAAATTAAATGGTTGGACTCCTCATGTTGAAGATATACCGGAGTCACCTAGTGCAG | 13800 fluorescence intensity (a.u.)
GCAATAATTAATAAGGCTCTAGGATAATTCAAATGGTTTTCGGAGTCACCTAGTGCAG | 9520 fluorescence intensity (a.u.)
TTCAGTCAATTTATAGTTGGTTGTTGAGAGGATTTAGAATCGGAGTCACCTAGTGCAG | 3200 fluorescence intensity (a.u.)
TTTGCGAACGTAATTCCATTAATTAAACACACGTCTATATCGGAGTCACCTAGTGCAG | 3570 fluorescence intensity (a.u.)
GCCACATTTAACGTGTGATTAATTAAATATTAGCTATTTTCGGAGTCACCTAGTGCAG | 12500 fluorescence intensity (a.u.)
AGGATGATTAACAGCCAATTAATTGATAAAATCAATTATGCGGAGTCACCTAGTGCAG | 28000 fluorescence intensity (a.u.)
CCTTTGACTGAATTTGATCAAGCATTAGATGCTGAAAGTTCGGAGTCACCTAGTGCAG | 31100 fluorescence intensity (a.u.)
GTTAATTAGTTATAGTTTGCGAAAGAACATGTATTAACCTCGGAGTCACCTAGTGCAG | 28300 fluorescence intensity (a.u.)
GTGTAGCATTTGATTGTTAAACAGCAAAATAACCCATGCACGGAGTCACCTAGTGCAG | 11600 fluorescence intensity (a.u.)
GGTAGAATTAAATAGGAATAATTTTCGATCGGTTTTCGATCGGAGTCACCTAGTGCAG | 6170 fluorescence intensity (a.u.)
GGTAATAATTTGTTTAGCTCCTGGTTTGGAATGGTATATTCGGAGTCACCTAGTGCAG | 7090 fluorescence intensity (a.u.)
AATCGCATTTCCAATCACAGCATCATTATTAAGGACAAGGCGGAGTCACCTAGTGCAG | 16700 fluorescence intensity (a.u.)
ATGATAGATTATTATAATCTATAAGTCAGATAACTATAATCGGAGTCACCTAGTGCAG | 28300 fluorescence intensity (a.u.)
TTTTGAGCCTAATTAATCTGTCATTAGCACATGTGGGTTACGGAGTCACCTAGTGCAG | 5400 fluorescence intensity (a.u.)
